# According to PubChem BioAssay AID686979 (National Center for Advancing Translational Sciences (NCATS), 2013):
# Out of some 420,000 compounds screened, about 50,000 (12%) were called active. This list was built around the results that the source calls inconclusive (neither active nor inactive); the mix of calls is not that of the screen. Calls come from the whole dose curve; as a rule, active = well fitted inhibition curve with a large enough effect; inconclusive = small, poorly fitted or top-dose-only effect; inactive = flat fitted curve, though single readings scatter. Potencies of inconclusive entries are left out as doubtful fits.
# Assay: qHTS for Inhibitors of human tyrosyl-DNA phosphodiesterase 1 (TDP1): qHTS in cells in presence of CPT; note: nearly all actives have a fitted effect of over 55% in size
# Details: chicken DT40 Tdp1-/-;hTDP1 cells + 20 nM CPT, ATP luminescence, 48 h; activity change, negative = growth inhibition: at 46.2 µM (top of the series) unless noted
# Outline: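 Chicken DT40 Tdp1-/- cells complemented with human TDP1, 400 cells/well, exposed to compounds plus 20 nM camptothecin for at least 48 h at 37 C; viability read as ATP content by CellTiter-Glo luminescence.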
# % is set by controls: 0 for no effect and ±100 for the full control effect; potency is the fitted concentration of half-maximal effect; tags give direction and shape of the fitted curve.
Compound,Potency,"activity change, negative = growth inhibition"
O=C(CN(c1ccc(Br)cc1)S(=O)(=O)c1ccc(Cl)c([N+](=O)[O-])c1)NCCc1ccccc1,inactive,
COc1ccccc1CNC(=O)c1ccc2c(c1)N(Cc1cccc(C)c1)C(=O)c1ccccc1S2(=O)=O,"inconclusive [inhibitor, single point]",
Cc1cccc(NC(=O)C2Cc3ccccc3CN2C(=O)OCc2ccccc2)c1C (stereo unspecified),"inconclusive [inhibitor, single point]",
O=C(CCCOc1ccc(Br)cc1)NNC(=O)c1ccncc1,inactive,
Cc1ncc(CN2CCC(C(=O)Nc3cccc(-c4cscn4)c3)CC2)cn1,"inconclusive [inhibitor, single point]",
CCOCCC(=O)Nc1ccc2c(c1)c(=O)n(C)n2C/C=C/c1ccccc1,active: 4.61 µM,
COc1cccc(C2CC(c3cccc(OC)c3)n3nc(N)nc3N2)c1 (stereo unspecified),inactive,
CCN(Cc1cc(=O)n2ccsc2n1)c1cccc2ccccc12,"inconclusive [inhibitor, single point]",
CCS(=O)(=O)N1CCN(c2ncnc3sc(C)c(C)c23)CC1,inactive,
O=C(CN1C(=O)NC2(CCCC2)C1=O)Nc1nc(-c2ccc(F)c(F)c2)cs1,active: 11.6 µM,
S=C(Nc1ccccc1)N1CCN(c2ccccc2)CC1,"inconclusive [inhibitor, partial curve]",
CCOC(=O)c1ccccc1NC(=O)C1CC(=O)N(C2CCCCC2)C1 (stereo unspecified),inactive,
CCCc1ccc(C(C)NC(=S)NC2CCCCC2)cc1 (stereo unspecified),"inconclusive [inhibitor, single point]",
COc1ccc(N2CCN(C(=O)COC(=O)c3ccccc3OCc3ccc(F)cc3)CC2)cc1,"inconclusive [inhibitor, partial curve, poor fit]",
O=C(CN1CCN(C(=O)CN2C(=O)NC3(CCCC3)C2=O)CC1)Nc1cccc(F)c1,inactive,
C=CCN1C(=O)C(C)(C)N(C(=O)c2cccc([N+](=O)[O-])c2)c2ccccc21,"inconclusive [inhibitor, single point]",
Fc1cccc(NC(=S)NNc2c3ccccc3nc3ccccc23)c1,active: 1.3 µM,
Cc1ccc(NC(=O)CCS(=O)(=O)c2ccccc2)cc1S(=O)(=O)N1CCCCCC1,"inconclusive [inhibitor, single point]",
CN(C)c1cc2c(cc1NC(=O)c1ccccc1Cl)n(C)c(=O)n2C,"inconclusive [inhibitor, single point]",
Cc1nnc(SCc2ccccc2)c2cc3sccc3n12,"inconclusive [inhibitor, single point]",
Cc1ccc(SCCN2CCC(C)CCC2=O)cc1 (stereo unspecified),inactive,
O=C(Nc1ccc(Nc2ccccc2)cc1)c1ccccc1,"inconclusive [inhibitor, partial curve, poor fit]",
Cc1ccccc1-c1cnc(C(O)c2c(C)ccc3ccccc23)[nH]1 (stereo unspecified),"inconclusive [inhibitor, single point]",
N#Cc1ccc(-c2ccc(OCC(O)CN3CCOCC3)cc2)cc1 (stereo unspecified),"inconclusive [inhibitor, partial curve]",
COc1cccc(C2CC(c3cccc(NS(C)(=O)=O)c3)=NN2C(=O)c2ccccc2)c1OC (stereo unspecified),active: 23.1 µM,
COc1cccc(Nc2nnc(SCC(=O)N3CC(C)OC(C)C3)s2)c1 (stereo unspecified),"inconclusive [inhibitor, single point]",

Compound,Potency,"activity change, negative = growth inhibition"
Cc1cccc(OCC(=O)NCCCNC(=O)c2ccncc2)c1,inactive,
CC(C)C(OC(=O)CN1C(=O)COc2ccccc21)C(=O)NC1CCCCC1 (stereo unspecified),inactive,
O=S(=O)(Nc1cccc(-c2ccc(N3CCCC3)nn2)c1)c1ccccc1C(F)(F)F,inactive,
CC(=O)OC1COC(OC(C)=O)CO1 (stereo unspecified),inactive,
Cc1ccccc1CNC(=O)c1ccc(CSCc2ccccc2)cc1,"inconclusive [inhibitor, single point]",
NS(=O)(=O)c1ccc(CCNC(=O)C(=O)NCC2OCCN2S(=O)(=O)c2ccc(F)cc2)cc1 (stereo unspecified),inactive,
CCc1ccc(CN(Cc2ccco2)C(=O)c2ccc(OC)cc2)cc1,"inconclusive [inhibitor, single point]",
COc1ccc(C)cc1NC(=O)CCCN1C(=O)NC(C)(C)C1=O,inactive,
NNC(=O)c1sccc1OCc1ccc(Cl)cc1Cl,inactive,
COCCCNC(=O)CSC1=Nc2ccccc2C2=NC(CCC(=O)NCc3ccccc3OC)C(=O)N12 (stereo unspecified),active: 16.4 µM,
Cc1ccc(NC(=O)C2Cc3ccccc3CN2C(=O)c2ccco2)cc1S(=O)(=O)N(C)C (stereo unspecified),inactive,
COc1ccc(N2CCN(c3oc(/C=C/c4ccc(F)cc4)nc3C#N)CC2)cc1,inactive,
CCN(CC)S(=O)(=O)c1ccc(OC)c(NC(=O)c2cc([N+](=O)[O-])ccc2Cl)c1,"inconclusive [inhibitor, single point]",
CN(C)c1ncc2nc(-c3cc(F)cc(F)c3)c(=O)n(C3CC3)c2n1,inactive,
Cc1ccc(/C=N/NC(=O)Cn2cncn2)cc1,inactive,
COC(=O)c1ccc(NS(=O)(=O)c2ccc(-c3cc(C)no3)s2)cc1,"inconclusive [inhibitor, partial curve]",
O=C(O)CCc1ccc(-c2cccs2)o1,"inconclusive [inhibitor, single point]",
COc1ccc(N2C(=O)C(Cl)=C(Nc3ccccc3OC)C2=O)cc1,"inconclusive [inhibitor, single point]",
COc1ccccc1C(C)NC(=O)Cc1ccsc1 (stereo unspecified),inactive,
CC(=O)N1c2ccc(S(=O)(=O)NCC3CCC(C(=O)Nc4ncccc4C)CC3)cc2CC1C (stereo unspecified),"inconclusive [inhibitor, partial curve]",
O=C(NCCN1C(=O)S/C(=C\c2ccc(Cl)cc2)C1=O)c1ccc(F)c(S(=O)(=O)N2CCOCC2)c1,active: 6.51 µM,
Cn1cnc(S(=O)(=O)NC2CCN(Cc3ccccc3)CC2)c1,inactive,
CCOC(=O)c1c(C)[nH]c(C)c1C(=O)COC(=O)c1cccc(C)c1O,"inconclusive [inhibitor, single point]",
COc1ccc(NC(=S)N2CCN(C/C=C/c3ccccc3)CC2)cc1OC,"inconclusive [inhibitor, partial curve]",
N#Cc1sc(NCc2ccccc2)nc1Cl,inactive,
Nc1ccc(OCc2ccco2)cc1,inactive,

Compound,Potency,"activity change, negative = growth inhibition"
C[C@@]12CCC3[C@@](CCC4[C@@]3(C)CCC[C@@]4(C)C(=O)N3CCOCC3)(CC1=O)C2 (stereo partly specified),inactive,
CCc1ccc(CNC(=O)CCC(=O)N2Cc3cccc(OC)c3Oc3ncccc32)cc1,"inconclusive [inhibitor, partial curve]",
COC(=O)c1cc(NC(=O)CN(c2cccc(OC)c2)S(=O)(=O)c2ccccc2)ccc1Cl,"inconclusive [inhibitor, single point]",
CCOc1ccc(C2/C(=C(\O)c3ccc4c(c3)OCCO4)C(=O)C(=O)N2CCCN2CCOCC2)cc1OC (stereo unspecified),"inconclusive [inhibitor, single point]",
CCOC(=O)N(CC)OC(=O)Nc1ccc(Cl)cc1,inactive,
Cc1cc(C(=O)CSc2nn3c(=O)c(C(C)(C)C)nnc3s2)c(C)n1-c1ccc(F)cc1,active: 16.4 µM,
O=C(Nc1ccccc1C(=O)N1CCCCC1)c1ccccc1C(F)(F)F,inactive,
Cc1nn2c(N3CCOCC3)cc(C(C)(C)C)nc2c1-c1ccccc1,"inconclusive [inhibitor, partial curve]",
CC(NC(=O)C1CCCN(S(=O)(=O)N2CCOCC2)C1)c1ccccc1 (stereo unspecified),inactive,
CN(C)C(CNC(=O)CSc1nc2ccccc2c(=O)n1Cc1ccco1)c1ccccc1 (stereo unspecified),inactive,
N#Cc1c(SCc2ccc(Cl)cc2)sc(C(=O)c2ccccc2)c1N,"inconclusive [inhibitor, single point]",
OCC1(CCOc2ccccc2)CCN(Cc2nc3ccc(F)cc3[nH]2)CC1,"inconclusive [inhibitor, partial curve]",
OC(Cc1ccnc2ccccc12)C(Cl)(Cl)Cl (stereo unspecified),"inconclusive [inhibitor, single point]",
O=C(Nc1cccc(C(=O)OCc2cc(=O)n3nc(C4CC4)sc3n2)c1)c1ccccc1,inactive,
COc1ccc(-c2coc3c(CN4CCOCC4)c(O)ccc3c2=O)cc1,"inconclusive [inhibitor, single point]",
O=C(Nc1ccccc1)c1cc(C2CCCCN2C(=O)CCc2ccccc2)on1 (stereo unspecified),"inconclusive [inhibitor, single point]",
Nc1c(-c2nc(-c3cccs3)no2)nnn1-c1ccccc1Cl,,inconclusive: -35% [inhibitor]
COCc1c(C(=O)Nc2cccc(S(=O)(=O)N3CCCCC3)c2)oc2ccccc12,"inconclusive [inhibitor, single point]",
CCOC(=O)c1oc2cccc(OCC(O)CNC(C)C)c2c1C (stereo unspecified),active: 20.6 µM,
COc1ccc(C(O)c2nc(-c3cccc(F)c3)cs2)cc1 (stereo unspecified),active: 16.4 µM,
O=C(NC1CCCC1)C(C1CC1)n1c(-c2cc3ccccc3[nH]2)nc2ccccc21 (stereo unspecified),"inconclusive [inhibitor, single point]",
COCCNC(=O)C1(C)CCCN(C(=O)c2cc(F)cc(F)c2)C1 (stereo unspecified),inactive,
Cc1cnn(C(=S)NCc2ccco2)c1,active: 18.4 µM,
COC(=O)c1ccc(OCC(O)CN2CCN(C(=O)c3ccco3)CC2)c(OC)c1 (stereo unspecified),inactive,
